The structures appear in SMILES notation.

The first experiment has as its system 786-0. Kind of experiment: Antitumor activity against human 786-0 cells xenografted in SCID/Biege mouse assessed as tumor size at 200 mg/kg, po BID for 20 days measured twice weekly (reference value: 623.1 +/- 95.1 mm3). The format is functional.
For the molecule `C[C@@H](O)CNC(=O)c1ccc2nc(C(O)(c3ccccc3F)c3ccccc3F)n(C)c2c1`, the Activity turned out to be 597.5 mm3.
Still for that read-out and setting: to `C[C@@H](O)CNC(=O)c1ccc2nc(C(O)(c3ccccc3)c3ccccc3)n(C)c2c1` belongs 668.9 mm3; to `CCn1c(C(O)(c2ccccc2F)c2ccccc2F)nc2ccc(C(=O)NC[C@@H](C)O)cc21`, 475.2 mm3; to `CCn1c(C(O)(c2ccccc2)c2ccccc2)nc2ccc(C(=O)NC[C@@H](C)O)cc21`, 281.1 mm3.

The next experiment deals with Acetyl-coenzyme A synthetase, cytoplasmic (Homo sapiens, UniProt Q9NR19). As to the kind of experiment: Inhibition of ACSS2 in human HCT116 cells pre-incubated for 2 hrs before [1,2-14C] sodium acetate addition and measured after 3 hrs by [14C]-Acetate uptake assay. The format is cell-based.
Sequence of UniProt Q9NR19 (Q9NR19 whole entry): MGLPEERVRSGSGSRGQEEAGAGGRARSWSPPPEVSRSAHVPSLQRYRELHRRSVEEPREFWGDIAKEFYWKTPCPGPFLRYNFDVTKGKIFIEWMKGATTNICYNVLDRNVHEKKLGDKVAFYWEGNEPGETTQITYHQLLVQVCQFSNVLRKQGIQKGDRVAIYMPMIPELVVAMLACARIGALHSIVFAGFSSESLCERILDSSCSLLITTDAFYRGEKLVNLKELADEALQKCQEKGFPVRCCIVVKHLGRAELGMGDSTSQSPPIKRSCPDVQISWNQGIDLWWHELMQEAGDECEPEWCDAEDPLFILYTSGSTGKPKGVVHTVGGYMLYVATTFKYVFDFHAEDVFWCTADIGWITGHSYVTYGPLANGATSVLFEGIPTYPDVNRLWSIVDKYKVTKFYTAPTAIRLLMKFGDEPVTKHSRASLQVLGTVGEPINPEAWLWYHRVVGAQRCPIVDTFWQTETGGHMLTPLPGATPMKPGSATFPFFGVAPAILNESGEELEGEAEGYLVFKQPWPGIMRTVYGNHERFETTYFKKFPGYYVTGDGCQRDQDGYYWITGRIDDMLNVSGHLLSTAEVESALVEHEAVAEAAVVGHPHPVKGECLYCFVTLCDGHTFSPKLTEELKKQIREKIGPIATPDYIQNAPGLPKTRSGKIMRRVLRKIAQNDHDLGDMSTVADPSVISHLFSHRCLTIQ
The molecule `CCn1c(C(O)(c2ccccc2)c2ccccc2)nc2ccc(C(=O)N[C@@H]3CCC[C@H]3O)cc21` returned a half-maximal inhibitory concentration (IC50) of 250 to 1000 nM.
In turn, `CCN1C[C@H](NC(=O)c2ccc3nc(C(O)(c4ccccc4)c4ccccc4)n(C)c3c2)CCC1=O` gave an IC50 of 250 to 1000 nM.
The same measure, in the same setting: next, `CCn1c(C(O)(c2ccccc2)c2ccccc2)nc2ccc(C3(CCO)COC3)cc21`: 250 to 1000 nM.

For the origin of these results see ChEMBL document CHEMBL4476868, “Benzimidazole derivatives and uses thereof” (2017).
